Part of at least one peptide drawing is inferred or uncertain, most often the ends. Ends that are not written are not given here.
Legend:
Format in all cases: cell-based
Human HepG2 cells = assay: Agonistic effect: net synthesis of hepatic proteins (factor B) in HepG2 cells; settings: for agonistic activity / Agonist: HepG2 cells; for Agonist: yes/no
human recombinant IL-1β = assay: Antagonistic effect: blocking of intact IL-1β action on hepatic protein synthesis in HepG2 cells; settings: for Antagonist / Concentration (of antagonist activity): Table 1; for Antagonist: HepG2 cells with intact IL-1, yes/no; for Concentration (of antagonist activity): fragments scored as antagonist
IL-1α = assay: Antagonistic effect: blocking of IL-1α action in HepG2 cells
TNF-alpha = assay: Antagonistic effect: blocking of TNF-alpha action in HepG2 cells

| Substance | agonistic activity (Human HepG2 cells) | Agonist (Human HepG2 cells; Table 1) | Concentration (of agonist activity) (Human HepG2 cells; Table 1, fragment scored as agonist) [microgram/ml] | Antagonist (human recombinant IL-1β) | Concentration (of antagonist activity) (human recombinant IL-1β) | blocking of the action of IL-1α (IL-1α) | blocking of the action of TNF-alpha (TNF-alpha) | antagonistic activity (blocking the action of IL-1β) (human recombinant IL-1β; HepG2 cells) | blocking of the down-regulation of albumin gene expression (human recombinant IL-1β; HepG2 cells, same experiment) | blocking of the up-regulation of complement factor B gene expression (human recombinant IL-1β; HepG2 cells, same experiment) | antagonistic effect by time of addition (human recombinant IL-1β; peptide added 3 hours after intact IL-1) | antagonistic effect by time of addition (human recombinant IL-1β; peptide added 6 hours prior to or simultaneous with intact IL-1) | lowest concentration tested that blocks IL-1β action (human recombinant IL-1β; vs. 30 pM intact IL-1) [nM] | lowest concentration tested that blocks IL-1β action (human recombinant IL-1β; vs. 500 pg/ml intact IL-1) [ng/mL] |
| --- | --- | --- | --- | --- | --- | --- | --- | --- | --- | --- | --- | --- | --- | --- |
| IPVALGLKEKNLYLS-NH2 [172-186, IPVALGLKEKNLYLS-NH2] | partial agonistic activity at micromolar concentrations | Yes | 250 | No | – | – | – | – | – | – | – | – | – | – |
| VFSMSFVQGEESNDK-NH2 [157-171, VFSMSFVQGEESNDK-NH2] | – | No | – | Yes | 50 microgram/ml | – | – | – | – | – | – | – | – | – |
| VFSMSFVQGEESNDKIPVALGLKEKNLYLS-NH2 [157-186] | no agonistic activity | No | – | Yes | .005 microgram/ml | blocking | not | blocks the action of human recombinant IL-1β at nanomolar concentrations | blocking | blocking | still evident, although reduced | apparent | 3 | 5 |
| VQGEESNDK-NH2 [163-171, VQGEESNDK-NH2, reference compound] | no agonistic activity | No | – | No | – | – | – | no antagonistic activity | – | – | – | – | – | – |
